Reference: patent US9566281B2 (Westfaelische Wilhelms-Universitaet, priority 2012, dated 2017)

Experiments:
[1] = tested on: A/Regensburg/D6/09, H1N1pdm09, RB1; conditions: mouse, in vivo

Compound | antiviral potency (H1N1pdm09 (RB1)) | reducing virus titer in the lung [1]
Cc1cc(C(=O)NOCCO)c(Nc2ccc(I)cc2F)n(C)c1=O [AZD-8330] | very potent | –
O=C(NOCC1CC1)c1ccc(F)c(F)c1Nc1ccc(I)cc1Cl [CI-1040] | – | potent
O=C(NOC[C@H](O)CO)c1ccc(F)c(F)c1Nc1ccc(I)cc1F [PD-0325901] | – | potent
CCCS(=O)(=O)Nc1ccc(F)c(C(=O)c2c[nH]c3ncc(-c4ccc(Cl)cc4)cc23)c1F [PLX-4032] | potent | –
